Our source for the binding signal values is PMC9911399, “Two distinct binding modes provide the RNA-binding protein RbFox with extraordinary sequence specificity”.

Where a chain is given by its changes, count along the chain named. Some of the results follow.

First the molecules themselves.
T1: RBFOX1 RRM RbFoxmut (Fox-RRM*) (Homo sapiens, UniProt Q9NWB1 109-208, R118D;E147R;N151S;E152T)
T1 sequence: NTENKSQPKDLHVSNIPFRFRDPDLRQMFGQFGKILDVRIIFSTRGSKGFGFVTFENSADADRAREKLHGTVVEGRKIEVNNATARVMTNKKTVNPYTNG

B1: GUAAGUG (DNA:RNA)
RNA: GGGAGACCGGAAUUCAGAUUGUCCGUAAGUGUUAAAUCCCGUCGUAGCCACCA
DNA 1: CAATCTGAATTCCGGTCTCCC
DNA 2: TGGTGGCTACGACGGGATT
B2: GGUCCCG (DNA:RNA)
RNA: B1 RNA with U26G, A27U, A28C, G29C, U30C
DNA 1: CAATCTGAATTCCGGTCTCCC
DNA 2: TGGTGGCTACGACGGGATT
B3: GUCUAAG (DNA:RNA)
RNA: B1 RNA with A27C, A28U, G29A, U30A
DNA 1: CAATCTGAATTCCGGTCTCCC
DNA 2: TGGTGGCTACGACGGGATT
B4: CUCUUGA (DNA:RNA)
RNA: B1 RNA with G25C, A27C, A28U, G29U, U30G, G31A
DNA 1: CAATCTGAATTCCGGTCTCCC
DNA 2: TGGTGGCTACGACGGGATT
B5: UGGCUAU (DNA:RNA)
RNA: GGGAGACCGGAAUUCAGAUUGUCCUGGCUAUUUAAAUCCCGUCGUAGCCACCA
DNA 1: CAATCTGAATTCCGGTCTCCC
DNA 2: TGGTGGCTACGACGGGATT
B6: GAUAUCC (DNA:RNA)
RNA: B1 RNA with U26A, A27U, G29U, U30C, G31C
DNA 1: CAATCTGAATTCCGGTCTCCC
DNA 2: TGGTGGCTACGACGGGATT
B7: UGAUUGG (DNA:RNA)
RNA: B5 RNA with G27A, C28U, A30G, U31G
DNA 1: CAATCTGAATTCCGGTCTCCC
DNA 2: TGGTGGCTACGACGGGATT
B8: ACCGGAA (DNA:RNA)
RNA: B1 RNA with G25A, U26C, A27C, A28G, U30A, G31A
DNA 1: CAATCTGAATTCCGGTCTCCC
DNA 2: TGGTGGCTACGACGGGATT
B9: UGCUGGA (DNA:RNA)
RNA: B5 RNA with G27C, C28U, U29G, A30G, U31A
DNA 1: CAATCTGAATTCCGGTCTCCC
DNA 2: TGGTGGCTACGACGGGATT
B10: UUUAUUG (DNA:RNA)
RNA: B1 RNA with G25U, A27U, G29U
DNA 1: CAATCTGAATTCCGGTCTCCC
DNA 2: TGGTGGCTACGACGGGATT
B11: AUCACUG (DNA:RNA)
RNA: B1 RNA with G25A, A27C, G29C
DNA 1: CAATCTGAATTCCGGTCTCCC
DNA 2: TGGTGGCTACGACGGGATT
B12: ACCUUCG (DNA:RNA)
RNA: B1 RNA with G25A, U26C, A27C, A28U, G29U, U30C
DNA 1: CAATCTGAATTCCGGTCTCCC
DNA 2: TGGTGGCTACGACGGGATT
B13: CAGGCAC (DNA:RNA)
RNA: B5 RNA with U25C, G26A, C28G, U29C, U31C
DNA 1: CAATCTGAATTCCGGTCTCCC
DNA 2: TGGTGGCTACGACGGGATT
B14: AGCGUUU (DNA:RNA)
RNA: B5 RNA with U25A, G27C, C28G, A30U
DNA 1: CAATCTGAATTCCGGTCTCCC
DNA 2: TGGTGGCTACGACGGGATT
B15: UAAGACG (DNA:RNA)
RNA: B1 RNA with G25U, U26A, A28G, G29A, U30C
DNA 1: CAATCTGAATTCCGGTCTCCC
DNA 2: TGGTGGCTACGACGGGATT
B16: CAGCUAU (DNA:RNA)
RNA: B5 RNA with U25C, G26A
DNA 1: CAATCTGAATTCCGGTCTCCC
DNA 2: TGGTGGCTACGACGGGATT
B17: AUCACAG (DNA:RNA)
RNA: B1 RNA with G25A, A27C, G29C, U30A
DNA 1: CAATCTGAATTCCGGTCTCCC
DNA 2: TGGTGGCTACGACGGGATT
B18: UUAAGAU (DNA:RNA)
RNA: B1 RNA with G25U, U30A, G31U
DNA 1: CAATCTGAATTCCGGTCTCCC
DNA 2: TGGTGGCTACGACGGGATT
B19: CACCCUA (DNA:RNA)
RNA: B1 RNA with G25C, U26A, A27C, A28C, G29C, G31A
DNA 1: CAATCTGAATTCCGGTCTCCC
DNA 2: TGGTGGCTACGACGGGATT
B20: AAAACAU (DNA:RNA)
RNA: B1 RNA with G25A, U26A, G29C, U30A, G31U
DNA 1: CAATCTGAATTCCGGTCTCCC
DNA 2: TGGTGGCTACGACGGGATT
B21: UAUUCCU (DNA:RNA)
RNA: B5 RNA with G26A, G27U, C28U, U29C, A30C
DNA 1: CAATCTGAATTCCGGTCTCCC
DNA 2: TGGTGGCTACGACGGGATT
B22: AACCAGG (DNA:RNA)
RNA: B1 RNA with G25A, U26A, A27C, A28C, G29A, U30G
DNA 1: CAATCTGAATTCCGGTCTCCC
DNA 2: TGGTGGCTACGACGGGATT
B23: UAUAUCA (DNA:RNA)
RNA: B5 RNA with G26A, G27U, C28A, A30C, U31A
DNA 1: CAATCTGAATTCCGGTCTCCC
DNA 2: TGGTGGCTACGACGGGATT
B24: CACUGGA (DNA:RNA)
RNA: B1 RNA with G25C, U26A, A27C, A28U, U30G, G31A
DNA 1: CAATCTGAATTCCGGTCTCCC
DNA 2: TGGTGGCTACGACGGGATT
B25: AAACAGC (DNA:RNA)
RNA: B1 RNA with G25A, U26A, A28C, G29A, U30G, G31C
DNA 1: CAATCTGAATTCCGGTCTCCC
DNA 2: TGGTGGCTACGACGGGATT
B26: GAGAGAG (DNA:RNA)
RNA: B1 RNA with U26A, A27G, U30A
DNA 1: CAATCTGAATTCCGGTCTCCC
DNA 2: TGGTGGCTACGACGGGATT
B27: AUACCUC (DNA:RNA)
RNA: B1 RNA with G25A, A28C, G29C, G31C
DNA 1: CAATCTGAATTCCGGTCTCCC
DNA 2: TGGTGGCTACGACGGGATT
B28: CGGUGGA (DNA:RNA)
RNA: B5 RNA with U25C, C28U, U29G, A30G, U31A
DNA 1: CAATCTGAATTCCGGTCTCCC
DNA 2: TGGTGGCTACGACGGGATT
B29: CUACUAC (DNA:RNA)
RNA: B5 RNA with U25C, G26U, G27A, U31C
DNA 1: CAATCTGAATTCCGGTCTCCC
DNA 2: TGGTGGCTACGACGGGATT
B30: GGCGCUG (DNA:RNA)
RNA: B1 RNA with U26G, A27C, A28G, G29C
DNA 1: CAATCTGAATTCCGGTCTCCC
DNA 2: TGGTGGCTACGACGGGATT
B31: CGACAGC (DNA:RNA)
RNA: B5 RNA with U25C, G27A, U29A, A30G, U31C
DNA 1: CAATCTGAATTCCGGTCTCCC
DNA 2: TGGTGGCTACGACGGGATT

The assay concerns the target T1, RBFOX1 RRM RbFoxmut (Fox-RRM*). The experiment in a line: EMSA; HiTS-Eq, 1 nM pool, 10 min; buffer printed only for the single-RNA assays: 10 mM Tris pH 7.5, 150 mM NaCl, 3.4 mM EDTA, 0.001% NP-40, 30 C. Particulars: tags: His6 N-terminal (pET28a); label: 5' 32P. The essentials: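 Purified wild-type or mutant RbFox RRM at increasing concentrations was equilibrated with 1 nM of 5′-radiolabelled RNA carrying 7 randomized nucleotides for 10 min in 50 µL. Unbound RNA was separated by 8% native PAGE and sequenced. Relative association constants came from read-count changes of each RNA species compared with the control reaction, normalised to the cognate motif.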
A general note: Mobility shift assays separate free from complexed probe on a gel.
Consider B1, for which the binding signal is 0.134 KA relative to UGCAUGU.

For the molecule B2, the binding signal was 0.0821 KA relative to UGCAUGU.

As to B3, the binding signal was 0.114 KA relative to UGCAUGU.

Regarding B4, the binding signal is 0.107 KA relative to UGCAUGU.

For the molecule B5, the binding signal was 0.0994 KA relative to UGCAUGU.

Consider B6, for which the binding signal was 0.0909 KA relative to UGCAUGU.

As to B7, the binding signal was 0.163 KA relative to UGCAUGU.

As for B8, the binding signal was 0.0811 KA relative to UGCAUGU.

Turning to B9, the binding signal was 0.0859 KA relative to UGCAUGU.

B10: the binding signal is 0.136 KA relative to UGCAUGU.

B11: the binding signal was 0.116 KA relative to UGCAUGU.

For the molecule B12, the binding signal was 0.102 KA relative to UGCAUGU.

For B13, the binding signal is 0.102 KA relative to UGCAUGU.

Consider B14, for which the binding signal is 0.108 KA relative to UGCAUGU.

As to B15, the binding signal was 0.0728 KA relative to UGCAUGU.

Regarding B16, the binding signal was 0.114 KA relative to UGCAUGU.

Regarding B17, the binding signal was 0.0938 KA relative to UGCAUGU.

As to B18, the binding signal was 0.0924 KA relative to UGCAUGU.

In the case of B19, the binding signal is 0.0853 KA relative to UGCAUGU.

Consider B20, for which the binding signal was 0.0651 KA relative to UGCAUGU.

As for B21, the binding signal is 0.063 KA relative to UGCAUGU.

Turning to B22, the binding signal is 0.0758 KA relative to UGCAUGU.

Take B23: the binding signal was 0.0818 KA relative to UGCAUGU.

For B24, the binding signal is 0.08 KA relative to UGCAUGU.

As for B25, the binding signal is 0.084 KA relative to UGCAUGU.

With B26, the binding signal is 0.0964 KA relative to UGCAUGU.

With B27, the binding signal is 0.0532 KA relative to UGCAUGU.

Consider B28, for which the binding signal was 0.0945 KA relative to UGCAUGU.

For the molecule B29, the binding signal is 0.105 KA relative to UGCAUGU.

As to B30, the binding signal is 0.135 KA relative to UGCAUGU.

For the molecule B31, the binding signal was 0.0526 KA relative to UGCAUGU.
